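1) Cells in 96-well plates. 2) Compound, 48 h, 5 concentrations. 3) Linear interpolation between surrounding doses. 4) Unreached endpoint = highest concentration. TGI marks complete inhibition of growth.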 A number of entries come with more than one value. The other results are left out here. There may be further records. Results that share an entry are repeated measurements across runs, samples, wells, individuals or studies. A tag in brackets gives the origin of a value. The letters are not those of the source and start again with each entry.
Legend:
Assay in all cases: NCI-60 cell line screen, 48 h
[1] = test system: MOLT-4 leukemia
[2] = test system: BT-549 breast
[3] = test system: MALME-3M melanoma
[4] = test system: NCI-H226 lung
[5] = test system: NCI-H522 lung
[6] = test system: NCI/ADR-RES ovarian
[7] = test system: OVCAR-4 ovarian

| SMILES | TGI [1] | TGI [2] | TGI [3] | TGI [4] | TGI [5] | TGI [6] | TGI [7] |
| --- | --- | --- | --- | --- | --- | --- | --- |
| COc1ccc(/C=C(/C)[N+](=O)[O-])cc1OC | > 100 µM [sample A, 1 test] and 7.23 µM [sample B, mean of 2 tests] |  |  |  |  |  |  |
| O=C(O)c1ccccc1N=Nc1c(O)c(S(=O)(=O)O)cc2cc(S(=O)(=O)O)ccc12 |  | 952 nM [sample A] and > 100 µM [sample B] | 211 nM [sample A] and > 100 µM [sample B] | 166 nM [sample A] and > 100 µM [sample B] | 75.7 nM [sample A] and > 100 µM [sample B] | 3.43 µM [sample A] and > 100 µM [sample B] | 240 nM [sample A] and > 100 µM [sample B] |

— PubChem BioAssay (NCI)
